Assay results published in PubChem BioAssay AID588342 (National Center for Advancing Translational Sciences (NCATS), 2011).
The campaign covered roughly 360,000 compounds. About 25,000 (6.9%) were called active. Inconclusive results, whose numbers are uncertain, are shown with a selection of clear calls. Calls come from the whole dose curve; as a rule, active = well fitted inhibition curve with a large enough effect; inconclusive = small, poorly fitted or top-dose-only effect; inactive = flat fitted curve, though single readings scatter. Where the call is inconclusive, the potency comes from a doubtful curve fit.

Molecular target: Luciferin 4-monooxygenase (Photinus pyralis) (UniProt P08659)
Chain of UniProt P08659 (P08659 whole entry, looked up): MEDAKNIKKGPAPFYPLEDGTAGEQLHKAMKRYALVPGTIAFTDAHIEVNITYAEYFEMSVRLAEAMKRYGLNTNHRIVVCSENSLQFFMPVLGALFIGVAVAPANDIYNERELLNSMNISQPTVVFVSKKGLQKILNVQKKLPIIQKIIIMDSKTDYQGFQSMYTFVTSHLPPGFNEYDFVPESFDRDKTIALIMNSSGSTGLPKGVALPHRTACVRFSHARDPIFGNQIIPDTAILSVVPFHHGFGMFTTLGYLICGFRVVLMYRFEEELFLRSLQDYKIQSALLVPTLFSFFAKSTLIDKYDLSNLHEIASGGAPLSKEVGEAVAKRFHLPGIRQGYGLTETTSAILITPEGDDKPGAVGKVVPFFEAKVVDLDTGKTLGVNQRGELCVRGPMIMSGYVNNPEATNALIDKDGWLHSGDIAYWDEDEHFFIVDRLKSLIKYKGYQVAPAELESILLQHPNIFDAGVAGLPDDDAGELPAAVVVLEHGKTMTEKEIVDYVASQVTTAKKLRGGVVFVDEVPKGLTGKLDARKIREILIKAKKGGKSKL
Test: qHTS profiling assay for firefly luciferase inhibitor/activator using purifed enzyme and Km concentrations of substrates (counterscreen for miR-21 project); note: nearly all actives have a fitted effect of over 55% in size;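 for activity change, negative = inhibition: plate controls were vehicle for no effect and reference inhibitor for full effect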
Settings: purified FLuc, luminescence inhibition; series mostly up to 57.5 µM; activity change, negative = inhibition: at the top concentration
Method in brief: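 Purified P. pyralis luciferase (10nM final) with 10uM D-luciferin and 10uM ATP (Km levels) in 50mM Tris acetate pH 7.5, 10mM Mg acetate, 0.01% Tween-20, 0.05% BSA; qHTS 6-point titration, ~60 µM downward; luminescence read.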
Potency is the fitted concentration of half-maximal effect; tags give direction and shape of the fitted curve.

| SMILES | Potency | activity change, negative = inhibition |
| --- | --- | --- |
| C=C(C)CSc1nc2nc(C)c(Br)cc2[nH]1 | inconclusive: 26.9 µM [inhibitor, single point] |  |
| Cc1cc(C)c2c(CN3CCCCC3)cc(=O)oc2c1 | inconclusive: 37.9 µM [inhibitor, partial curve, poor fit] |  |
| O=C1NC2(C=Cc3c(ccc4ccccc34)O2)Oc2ccccc21 (configuration not stated) | active: 6.01 µM |  |
| CCOc1ccc(NC(=O)c2cc3c(C)nn(-c4ccccc4)c3s2)cc1 |  | inactive: 5.74% |
| CCCCCCCCCCCCC(=O)CCCCC(=O)O | inconclusive: 33.8 µM [inhibitor, partial curve, poor fit] |  |
| CN(C)c1ccc(-c2nc3n(n2)C(c2cccnc2)C2=C(CC(C)(C)CC2=O)N3)cc1 (configuration not stated) | inconclusive: 37.9 µM [inhibitor, partial curve, poor fit] |  |
| CCn1c(SCC(=O)c2ccc(Cl)cc2)nnc1-c1cccs1 | active: 23.9 µM |  |
| Cc1ccc(-c2nnc(Nc3ccc(Br)cc3)c3ccccc23)cc1S(=O)(=O)NCC1CCCO1 (configuration not stated) | inconclusive: 4.26 µM [inhibitor, partial curve, poor fit] |  |
| Nc1nc(N)nc(-c2cccc(Cl)c2)n1 | inconclusive: 10.7 µM [inhibitor, single point] |  |
| COc1cccc(-c2cc(C(=O)N3CCN(C(=O)c4ccco4)CC3)[nH]n2)c1 | inconclusive: 23.9 µM [inhibitor, partial curve] |  |
| CN(CC(=O)Nc1ccc(F)cc1)C(=O)c1cc2c(s1)CCCCC2 |  | inactive: 0.435% |
| CSc1ccc(CCNC(=O)C2=C(C)C(=O)OC23CCCCC3)cc1 |  | inactive: 4.05% |
| COc1ccc(NC(=O)CN2C(=O)C(C)(C)c3ccccc32)cc1Cl |  | inactive: 4.41% |
| O=C(O)CC/C(=N\Nc1ccccc1[N+](=O)[O-])c1cccs1 | inconclusive: 26.9 µM [inhibitor, single point] |  |
| O=C(CCN1C(=O)/C(=C\c2ccccc2F)SC1=S)N1CCCCC1 | inconclusive: 30.1 µM [inhibitor, single point] |  |
| O=C(/C=C/c1ccco1)Nc1ccc2nc3n(c(=O)c2c1)CCCC3 | inconclusive: 10.7 µM [inhibitor, partial curve, poor fit] |  |
| Cc1cc(C(=O)CSc2ncccn2)c(C)n1Cc1ccco1 | active: 3.01 µM |  |
| O=C(/C=C/c1ccc(Cl)cc1Cl)N(Cc1ccccc1)C1CCS(=O)(=O)C1 (configuration not stated) | inconclusive: 21.3 µM [inhibitor, partial curve, poor fit] |  |
| Cc1nn(-c2ccccc2)c(OC(=O)c2cccc(Br)c2)c1S(=O)(=O)c1ccccc1 | inconclusive: 9.53 µM [inhibitor, partial curve] |  |
| CC(C)NC(=O)COc1ccc(OCc2ccccc2)cc1 | inconclusive: 26.9 µM [inhibitor, partial curve, poor fit] |  |
| COc1ccc(-c2nc3ccc([N+](=O)[O-])cc3[nH]2)cc1 | active: 1.51 µM |  |
| COc1ccc(-c2cc(-c3ccccc3O)[nH]n2)cc1OC | active: 2.39 µM |  |
| Cc1cccc(C(=O)Nc2nnc(S(=O)(=O)N(C)Cc3ccc(Cl)cc3)s2)c1 | inconclusive: 12 µM [inhibitor, partial curve] |  |
| CN(CC(=O)N1CCCCCC1)S(=O)(=O)c1ccccc1 | inconclusive: 23.9 µM [inhibitor, partial curve] |  |

| SMILES | Potency | activity change, negative = inhibition |
| --- | --- | --- |
| O=C(NCc1ccc(F)cc1)Nc1ccccc1 | inconclusive: 37.9 µM [inhibitor, single point] |  |
| CCOc1ccccc1N(CC(=O)N1CCOCC1)S(=O)(=O)c1ccccc1 |  | inactive: 0.191% |
| Cc1cccc2c1OCC/C2=N\NC(=O)COc1ccccc1 | active: 19 µM |  |
| Fc1cccc(-c2cc3nc4c(c(N5CCC6(CC5)OCCO6)n3n2)CCCC4)c1 | active: 15.1 µM |  |
| Cc1ccc(/C=C2\SC(=S)N(CC3CCCO3)C2=O)o1 (configuration not stated) | active: 21.3 µM |  |
| COc1ccc(Cc2nc3ccc(C(=O)NCc4cc(C)no4)cc3o2)cc1 | active: 13.5 µM |  |
| Cc1cccc(Nc2nc(-c3ccc(O)cc3O)cs2)n1 | active: 13.5 µM |  |
| Cc1ccc(C(=O)CCS(=O)(=O)c2ccc(F)cc2)cc1 | active: 0.757 µM |  |
| CCC(=O)C1=C(O)C(c2cccc(Oc3ccccc3)c2)CCC1=O (configuration not stated) | inconclusive: 16.9 µM [inhibitor, partial curve, poor fit] |  |
| COc1ccc(C(=O)COc2ncnc3cc(Cl)ccc23)cc1 | inconclusive: 37.9 µM [inhibitor, partial curve, poor fit] |  |
| CC(=O)Oc1ccc(C(=O)Nc2nnc(C)s2)cc1 | active: 21.3 µM |  |
| O=C(Nc1ccccc1C(=O)NCc1ccco1)c1ccccc1 |  | inactive: 0.162% |
| Cc1ccnc(N2CCC(C(=O)NCc3ccc(F)cc3)CC2)n1 | inconclusive: 0.012 µM [inhibitor, partial curve, poor fit] |  |
| COC(=O)c1sccc1NC(=O)Nc1cccc([N+](=O)[O-])c1 | active: 6.75 µM |  |
| S=C(Nc1cccc(Cl)c1)Nc1cccc2cnccc12 | inconclusive: 30.1 µM [inhibitor, partial curve, poor fit] |  |
| O=C(/C=C/c1ccccc1)/C=C/c1ccccc1 | active: 3.38 µM |  |
| COc1ccc(Nc2n[nH]c(C)c2[N+](=O)[O-])cc1 | inconclusive: 19 µM [inhibitor, single point] |  |
| Cc1sc2ncnc(Sc3ccccc3C(=O)Nc3ccc(Br)cc3)c2c1C |  | inactive: -19.6% |
| COCCCNC(=S)Nc1ccc2c(c1)OCCO2 | inconclusive: 26.9 µM [inhibitor, single point] |  |
| O=C(Nc1ccc(Cl)c(C(F)(F)F)c1)c1ccco1 | inconclusive: 19 µM [inhibitor, partial curve] |  |
| Cc1ccc(/C=N/NC(=O)c2nnn(-c3nonc3N)c2C(C)C)s1 | inconclusive: 6.01 µM [inhibitor, partial curve, poor fit] |  |
| CCOC(=O)Cn1c(=O)cc(C)c2cccc(C)c21 | inconclusive: 30.1 µM [inhibitor, partial curve, poor fit] |  |
| CC1CC2(C)CC(C)C1(COC(=O)Nc1ccccc1)CO2 (configuration not stated) | inconclusive: 37.9 µM [inhibitor, partial curve, poor fit] |  |
